From article PMC4336329 (PLoS ONE, 2015)
Out of some 310,000 compounds screened, about 2,200 (0.71%) showed an effect of 50% or more. Effects have a minus sign here. This is one part of the list.

The compounds below were run against human ether-à-go-go-related gene (hERG) potassium channel (human, UniProt Q12809) (assay: primary screen, population patch clamp on CHO cells stably expressing hERG).
Sequence of human ether-à-go-go-related gene (hERG) potassium channel (Q12809 whole entry, looked up): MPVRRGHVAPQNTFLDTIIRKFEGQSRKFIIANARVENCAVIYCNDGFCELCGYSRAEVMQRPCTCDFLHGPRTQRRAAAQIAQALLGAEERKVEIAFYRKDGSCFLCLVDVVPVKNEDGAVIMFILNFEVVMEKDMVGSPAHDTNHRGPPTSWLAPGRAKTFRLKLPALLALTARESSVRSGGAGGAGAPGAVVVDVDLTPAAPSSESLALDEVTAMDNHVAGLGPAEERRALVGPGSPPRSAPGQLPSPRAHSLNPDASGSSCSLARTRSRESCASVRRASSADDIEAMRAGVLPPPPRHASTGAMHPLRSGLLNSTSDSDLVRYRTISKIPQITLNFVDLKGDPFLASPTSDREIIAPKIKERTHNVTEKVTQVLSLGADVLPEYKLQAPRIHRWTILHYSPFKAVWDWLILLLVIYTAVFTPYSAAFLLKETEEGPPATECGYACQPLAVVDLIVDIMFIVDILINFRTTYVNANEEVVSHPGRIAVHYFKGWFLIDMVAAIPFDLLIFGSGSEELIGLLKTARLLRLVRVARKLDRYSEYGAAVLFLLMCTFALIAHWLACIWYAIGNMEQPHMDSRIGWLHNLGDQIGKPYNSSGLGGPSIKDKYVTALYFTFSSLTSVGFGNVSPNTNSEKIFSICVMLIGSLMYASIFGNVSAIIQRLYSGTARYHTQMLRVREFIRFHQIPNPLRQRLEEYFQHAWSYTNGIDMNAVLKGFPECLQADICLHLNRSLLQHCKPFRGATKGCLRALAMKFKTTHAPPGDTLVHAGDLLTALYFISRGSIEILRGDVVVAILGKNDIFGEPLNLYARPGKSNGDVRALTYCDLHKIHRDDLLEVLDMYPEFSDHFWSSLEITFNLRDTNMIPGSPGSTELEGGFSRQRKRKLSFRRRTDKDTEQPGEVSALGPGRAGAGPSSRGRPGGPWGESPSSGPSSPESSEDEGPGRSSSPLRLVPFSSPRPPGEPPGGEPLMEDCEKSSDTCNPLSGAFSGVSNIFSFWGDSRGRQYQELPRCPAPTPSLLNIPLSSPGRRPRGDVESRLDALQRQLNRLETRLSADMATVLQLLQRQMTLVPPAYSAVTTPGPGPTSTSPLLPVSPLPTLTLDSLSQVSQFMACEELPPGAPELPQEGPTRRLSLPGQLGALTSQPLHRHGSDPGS

SMILES	hERG current change (%, negative = inhibition) at 1uM [%]
O=C(C1=C(O)C(=O)N(CC2CCCO2)C1c1cccc(Cl)c1)c1ccco1 (stereo not shown)	10.1
COc1ccc(C)c2sc(N(CCN(C)C)C(=O)c3cccc(N4C(=O)CCC4=O)c3)nc12.Cl	-19.7
CC(=O)Nc1ccc(NC(=O)Nc2cccc3ccccc23)cc1	9.7
CNC(=S)Nc1ccc2nc(C)c(C)nc2c1	17
CCn1c(O)c(/C=C2\C=NN=C2c2ccc(C)cc2)sc1=S	7.69
CCOC(=O)CN(C(=O)c1ccccc1)c1ccccc1C	5.8
Cc1ccc(SCC(=O)NCc2ccncc2)cc1	8.37
NC(=O)c1ccsc1NC(=O)COC(=O)C1=NNC(=O)CC1	14.1
COc1cccc(-c2nc(Oc3cc(C)cc(C)c3)c3ccccc3n2)c1O	15.5
COc1ccc(NC(=O)c2ccc(COCC(F)(F)C(F)F)cc2)cc1	7.19
COc1ccc(Nc2nc(N3CCCCC3)c3ccccc3n2)cc1	0.968
Cc1ccc(C)c(N2CCN(C(=O)C3CCCN(S(=O)(=O)c4c(C)noc4C)C3)CC2)c1 (stereo not shown)	10.9
CC(Oc1ccc(Cl)cc1Cl)C(=O)Nn1cnnc1 (stereo not shown)	16.7
COc1ccc(OCc2nnc(NC(=O)Nc3ccc(F)cc3)s2)cc1	8.15
Cc1noc(N)c1C1(O)C(=O)Nc2c(Cl)cc(Cl)cc21 (stereo not shown)	1.24
O=C(OCc1ccc(Cl)c(Cl)c1)c1ccc[nH]1	-1
CC1(C)SC2C(NC(=O)COc3ccccc3)C(=O)N2C1C(=O)[O-].[K+] (stereo not shown)	0.024
COc1cccc(C2=NN(C(=O)c3ccco3)C(O)(C(F)(F)F)C2)c1 (stereo not shown)	11.9
CCCCC(CC)C(=O)Nc1cc(C(=O)NCCC)ccc1N1CCC2(CC1)CC(c1ccccc1)=NO2 (stereo not shown)	-11.4
O=C1/C(=C/c2ccco2)SC(=S)N1CC1CCCO1 (stereo not shown)	14.5
Cn1ncc([N+](=O)[O-])c1C(=O)N1CCOCC1	-0.9
COc1c(C(=O)Nc2nnc(C3CC3)s2)csc1Cl	7.74
Cc1ccc(NC2=C(Cl)C(=O)OC2OC(=O)c2ccco2)cc1 (stereo not shown)	7.08
COc1ccc(CCNC(=O)c2nnn(-c3ccc4c(c3)OCCO4)c2N)cc1OC	14.4
CCCCN(CC(=O)NC1CC1)S(=O)(=O)c1ccc(OCC)cc1	-1.89
